# The antibiotic and cytotoxicity screens of Wong et al. (2023)
# The list shows a part of the results.
# How the values were obtained:
# [1] = tested on: HSkMC (human skeletal muscle cells); test: cytotoxicity call (relative viability < 0.9); settings: 10 µM
# [2] = tested on: HepG2; test: cytotoxicity call (relative viability < 0.9); settings: 10 µM
# [3] = tested on: S. aureus RN4220; test: growth inhibition call (relative growth <= 0.2); settings: 50 µM
SMILES,cytotoxicity call [1],cytotoxicity call [2],growth inhibition call [3]
C[C@H](CO)N1C[C@H](C)[C@H](CN(C)Cc2ccc(C(=O)O)cc2)Oc2ccc(NC(=O)Nc3ccc(C(F)(F)F)cc3)cc2C1=O,inactive,inactive,inactive
Nc1nnc(CNC(=O)c2ccccc2)[nH]1,inactive,inactive,inactive
C[C@@H]1CN([C@H](C)CO)C(=O)CCCn2cc(nn2)CO[C@@H]1CN(C)C(=O)Nc1cccc2ccccc12,inactive,inactive,inactive
CN(C)CC(=O)N1[C@@H]2Cn3c(ccc(-c4ccccc4)c3=O)[C@H]1[C@@H](C(=O)N1CCOCC1)[C@@H]2CO,inactive,inactive,inactive
C[C@H](CO)N1C[C@H](C)[C@H](CN(C)S(=O)(=O)c2ccc(C#N)cc2)Oc2ncc(C#CCN(C)C)cc2C1=O,inactive,inactive,inactive
COc1ccccc1C(=O)N1CCNCC1,inactive,inactive,inactive
C[C@@H]1CCCCO[C@@H](CN(C)S(=O)(=O)c2ccc(Cl)cc2)[C@@H](C)CN([C@H](C)CO)C(=O)c2cc(NC(=O)Nc3ccccc3)ccc2O1,inactive,inactive,inactive
C[C@@H]1CN([C@@H](C)CO)C(=O)c2cc(NC(=O)CCCN(C)C)ccc2O[C@H]1CN(C)S(=O)(=O)c1cn(C)cn1,inactive,inactive,inactive
C[C@@H]1CN([C@@H](C)CO)C(=O)Cc2cc(NS(C)(=O)=O)ccc2O[C@@H]1CN(C)S(=O)(=O)c1ccc(F)cc1,inactive,inactive,inactive
C[C@@H]1CCCCO[C@H](CN(C)C(=O)C2CCCCC2)[C@H](C)CN([C@H](C)CO)C(=O)c2cc(NS(=O)(=O)c3ccccc3)ccc2O1,inactive,inactive,inactive
CO[C@H]1CN(C)C(=O)c2cc(NC(=O)C3CCOCC3)ccc2OC[C@@H](C)N(Cc2cccnc2)C[C@H]1C,inactive,inactive,inactive
C[C@@H]1CN([C@@H](C)CO)S(=O)(=O)c2ccc(C#CC3CC3)cc2O[C@H]1CN(C)Cc1ccc(F)cc1,inactive,inactive,inactive
C[C@H](CO)N1C[C@H](C)[C@@H](CN(C)C(=O)NC2CCCCC2)OCc2ccccc2-c2c(n(C)c3ccccc23)C1=O,inactive,inactive,inactive
C[N+](C)(C)CCCC[C@@H]1NC(=O)[C@@H]2C[C@H](C(=O)NCc3ccc(F)cc3)[C@H](c3cccc(OCCO)c3)N2C1=O,inactive,inactive,inactive
C[C@H](CO)N1C[C@H](C)[C@@H](CN(C)S(=O)(=O)c2ccc(F)cc2)Oc2c(NS(C)(=O)=O)cccc2C1=O,inactive,inactive,inactive
COc1ccc(S(=O)(=O)Nc2ccc3c(c2)C(=O)N([C@H](C)CO)C[C@H](C)[C@H](CN(C)Cc2ccncc2)O3)cc1,inactive,inactive,inactive
C[C@H]1CN([C@@H](C)CO)C(=O)c2cc(NC(=O)C3CCCCC3)ccc2O[C@H]1CN(C)C(=O)Nc1ccc(C(F)(F)F)cc1,inactive,inactive,inactive
CC(C)[C@@H](CC[C@@H](C)[C@H]1CC[C@H]2[C@@H]3[C@H](O)C[C@H]4C[C@@H](NCCCNCCCCNCCCN)CC[C@]4(C)[C@H]3CC[C@]12C)OS(=O)(=O)O,active,active,inactive
C=c1[nH]/c(=C\c2ccc(F)cc2)c(=O)o1,inactive,inactive,inactive
C[C@@H]1CCCCO[C@@H](CN(C)C(=O)c2ccccc2)[C@@H](C)CN([C@H](C)CO)C(=O)c2cc(NC(=O)Nc3cccc4ccccc34)ccc2O1,inactive,inactive,inactive
CC(=O)O,inactive,inactive,inactive
Cc1ccc(NC(=O)CC(C)C)cc1,inactive,inactive,inactive
CC(C)CC(=O)N1CCC(N)CC1,inactive,inactive,inactive
CCC(C)n1ncn(-c2ccc(N3CCN(c4ccc(OCC5COC(Cn6cncn6)(c6ccc(Cl)cc6Cl)O5)cc4)CC3)cc2)c1=O.Cl.Cl (stereo not given),inactive,active,inactive
COCCNC(=O)C[C@H]1CC[C@H]2[C@@H](COC[C@H](O)CN2S(=O)(=O)c2ccccc2C)O1,inactive,inactive,inactive
C[C@@H]1CN([C@@H](C)CO)C(=O)Cc2cc(NC(=O)C3CC3)ccc2O[C@H]1CN(C)Cc1ccc(C(=O)O)cc1,inactive,inactive,inactive
C[C@@H]1CN([C@H](C)CO)C(=O)c2cc(C#CC3CCCC3)cnc2O[C@H]1CN(C)C(=O)Cc1ccccn1,inactive,inactive,inactive
COc1ccc(NC(=O)Nc2ccc3c(c2)C(=O)N([C@H](C)CO)C[C@H](C)[C@@H](CN(C)Cc2ccc(Cl)c(Cl)c2)OCCCC[C@H](C)O3)cc1,inactive,inactive,inactive

SMILES,cytotoxicity call [1],cytotoxicity call [2],growth inhibition call [3]
O=C(CCCCCNC(=O)OCc1ccc(CO[C@H]2C[C@@H](c3ccc(C(F)(F)F)cc3)C=C(C(=O)NC3CC3)O2)cc1)NO,inactive,inactive,inactive
COc1ccc(S(=O)(=O)N(C)C[C@H]2Oc3ccc(NS(=O)(=O)c4cn(C)cn4)cc3CC(=O)N([C@H](C)CO)C[C@@H]2C)cc1,inactive,inactive,inactive
O=S(=O)(NCC[C@H]1CC[C@H](NS(=O)(=O)c2ccccc2Cl)[C@@H](CO)O1)c1ccc(Cl)cc1,inactive,inactive,inactive
COc1ccc2c3c(n(c2c1)C)[C@@H](CO)N(C[C@]13CN(Cc2cccnc2)C1)S(=O)(=O)c1ccc(cc1)C,inactive,inactive,inactive
C[C@H]1CN([C@@H](C)CO)C(=O)c2cc(-c3cccnc3)cnc2O[C@@H]1CN(C)Cc1ccc(Oc2ccccc2)cc1,inactive,inactive,inactive
Cn1cnc(S(=O)(=O)N[C@H]2CC[C@@H](CC(=O)N3CCN(c4ccccc4)CC3)O[C@@H]2CO)c1,inactive,inactive,inactive
COc1ccc(S(=O)(=O)Nc2ccc3c(c2)C(=O)N([C@@H](C)CO)C[C@H](C)[C@H](CN(C)S(=O)(=O)c2ccc(Cl)cc2)OCCCC[C@H](C)O3)cc1,inactive,inactive,inactive
CO[C@H]1[C@@H](O)[C@H](n2ccc(N)nc2=O)O[C@@H]1CO,inactive,inactive,inactive
O=C(CCCCCCC(=O)Nc1ccccc1O)N/N=C/[C@H](O)[C@@H](O)[C@H](O)[C@H](O)CO[C@H]1O[C@H](CO)[C@H](O)[C@H](O)[C@H]1O,inactive,inactive,inactive
COc1cccc(N2CCN(C3=Nc4c(F)cccc4[C@H](CC(=O)O)N3c3cc(C(F)(F)F)ccc3OC)CC2)c1,inactive,inactive,inactive
CC(C)NC(=O)Nc1ccc2c(c1)CC(=O)N([C@H](C)CO)C[C@@H](C)[C@H](CN(C)Cc1ccc(Oc3ccccc3)cc1)O2,inactive,inactive,inactive
COc1ccc(NC(=O)N(C)C[C@@H]2OCCCC[C@H](C)Oc3ccc(NS(=O)(=O)c4c(C)noc4C)cc3C(=O)N([C@H](C)CO)C[C@@H]2C)cc1,inactive,inactive,inactive
Cc1ccc(S(=O)(=O)N2C[C@@H](O)COC[C@H]3O[C@@H](CC(=O)N[C@H]4CCN(Cc5ccccc5)C4)CC[C@@H]32)cc1,inactive,inactive,inactive
O=C(O)[C@@H]1CC(=O)N(c2ccc3c(c2)OCO3)C1,inactive,inactive,inactive
C[C@H]1CCCCO[C@@H](CN(C)C(=O)Nc2ccccc2)[C@@H](C)CN([C@@H](C)CO)C(=O)c2cc(NS(=O)(=O)c3cccs3)ccc2O1,inactive,inactive,inactive
CCC[C@@H](O)C#Cc1cnc2c(c1)C(=O)N([C@H](C)CO)C[C@H](C)[C@H](CN(C)C(=O)Nc1c(C)noc1C)O2,inactive,inactive,inactive
CC(C)CC#Cc1cnc2c(c1)C(=O)N([C@@H](C)CO)C[C@H](C)[C@H](CN(C)S(=O)(=O)c1cn(C)cn1)O2,inactive,inactive,inactive
COCC#Cc1ccc2c(c1)O[C@@H](CN(C)C(=O)C1CCCCC1)[C@@H](C)CN([C@@H](C)CO)S2(=O)=O,inactive,inactive,inactive
COc1ccc(S(=O)(=O)N(C)C[C@H]2Oc3c(NS(=O)(=O)c4cn(C)cn4)cccc3C(=O)N([C@@H](C)CO)C[C@@H]2C)cc1,inactive,inactive,inactive
COc1ccc(S(=O)(=O)Nc2ccc3c(c2)C(=O)N([C@H](C)CO)C[C@@H](C)[C@H](CN(C)C(=O)Nc2ccc(C(F)(F)F)cc2)OCCCC[C@@H](C)O3)cc1,inactive,inactive,inactive
C[C@@H]1CN([C@@H](C)CO)S(=O)(=O)c2ccc(C#C[C@@H](C)O)cc2O[C@H]1CN(C)C(=O)CN(C)C,inactive,inactive,inactive
C[C@H]1CN([C@@H](C)CO)C(=O)c2cc(NC(=O)Cn3cnnn3)ccc2O[C@@H]1CN(C)Cc1ccc(Cl)c(Cl)c1,inactive,inactive,inactive
C[C@@H]1CCCCO[C@@H](CN(C)Cc2ccncc2)[C@@H](C)CN([C@@H](C)CO)C(=O)c2cc(NC(=O)c3ccccc3)ccc2O1,inactive,inactive,inactive
COCC(=O)Nc1ccc2c(c1)OC[C@H](C)N(Cc1ccccc1OC)C[C@@H](C)[C@@H](OC)CN(C)C2=O,inactive,inactive,inactive
COc1ccc(CCNC(=O)[C@@]2(Cc3ccccc3I)c3ccccc3C(=O)N(Cc3ccccc3OC)[C@H]2c2ccc(CO)cc2)cc1,inactive,inactive,inactive
O=C(C[C@H]1CC[C@@H]2[C@H](COC[C@@H](O)CN2C(=O)c2ccccc2)O1)N1CCOCC1,inactive,inactive,inactive
CC(C)NC(=O)N(C)C[C@H]1OCc2cnnn2CCCC(=O)N([C@@H](C)CO)C[C@H]1C,inactive,inactive,inactive
